Measured values from paper PMC7819943, “Rice protein-binding microarrays: a tool to detect cis-acting elements near promoter regions in rice”.
The list shows a part of the results.

These sequences were tested against T1, OsWOX13 (Oryza sativa, UniProt Q5QMM3 1-267) (assay: protein-binding microarray (RPBM); PBS, 2% BSA, 51.3 ng/ul salmon testes DNA, 50 uM zinc acetate, 200 nM TF, 25 C, 1 h; high values mean tight binding). Settings: protein: recombinant; tags: N-terminal polyhistidine and DsRed monomer fusion (pET32a); label: CyDye5-dUTP incorporated in the synthesized complementary strand; 3' TTTTT single-stranded linker to array surface; dsDNA, one strand shown.
T1 sequence: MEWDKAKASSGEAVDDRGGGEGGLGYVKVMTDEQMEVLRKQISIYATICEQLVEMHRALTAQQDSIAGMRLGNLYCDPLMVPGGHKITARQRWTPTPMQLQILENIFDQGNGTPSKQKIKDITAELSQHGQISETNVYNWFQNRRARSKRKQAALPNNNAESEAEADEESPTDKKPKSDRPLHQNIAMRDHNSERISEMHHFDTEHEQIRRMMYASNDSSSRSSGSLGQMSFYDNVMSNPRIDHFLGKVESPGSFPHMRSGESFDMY
How it was run: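 For the binding signal, per-feature fluorescence intensity was read in arbitrary units on an Axon 4000B scanner. Before scanning, a 2% BSA-blocked custom Agilent array made double-stranded with Cy5-dUTP was washed after 1 h at 25 °C with 200 nM protein and 50 µM zinc acetate. The proteins were Ni–NTA-purified transcription factors with N-terminal polyhistidine and DsRed fusions, expressed in E. coli BL21-CodonPlus.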
With “TTTTGTTGACAGTAAATATTAATTTAGGGACGGTTTGAGTCGGAGTCACCTAGTGCAG” the binding signal was 7190 fluorescence intensity (a.u.). With “TGCCTATAATTGTAGAAGGGACACGGAGCCGATCGATCCACGGAGTCACCTAGTGCAG” the binding signal was 5260 fluorescence intensity (a.u.). For “CATTAAATTAGTGCTCAAGAAATATTTTCGTCGTAGTATACGGAGTCACCTAGTGCAG”, the binding signal was 12300 fluorescence intensity (a.u.). “AACACAAATTAGTTAATTGAATATAACATTTCATATAGTACGGAGTCACCTAGTGCAG” was tested, and the binding signal was 34400 fluorescence intensity (a.u.). For “CGCTAATGTGTCCTCTAACATATAGAAGAGACAGAAACCACGGAGTCACCTAGTGCAG”, the binding signal was 4220 fluorescence intensity (a.u.). “ACTTGTTGACTAACTATTGTTAACTGTTATGCTGTGGTATCGGAGTCACCTAGTGCAG” was tested, and the binding signal was 4870 fluorescence intensity (a.u.). With “CACATTATCAATCATCATTAATCATTAATTAGCTGCTTGCCGGAGTCACCTAGTGCAG” the binding signal was 36600 fluorescence intensity (a.u.). For “TCTGATAGTAATTGAAGTATAAAACAGAGGATTGCAAAACCGGAGTCACCTAGTGCAG”, the binding signal was 24300 fluorescence intensity (a.u.). In the case of “TTAGTTAACTAATCTAATCTTAGTTTATAAAATTTTAGTGCGGAGTCACCTAGTGCAG”, the binding signal is reported as 14000 fluorescence intensity (a.u.). For “TATAAACAGGTGCTAATTAAAATTAAGAATTTTGAAAGCACGGAGTCACCTAGTGCAG”, the binding signal was 42100 fluorescence intensity (a.u.). For “GTAGATAATAGATAAATAGATAATAGATAACAAATAAAATCGGAGTCACCTAGTGCAG”, the binding signal was 6330 fluorescence intensity (a.u.). In the case of “CTCCTAAATTTAACTTCAAGGATGAAGCTATGGAGCTATCCGGAGTCACCTAGTGCAG”, the binding signal is reported as 5080 fluorescence intensity (a.u.). In the case of “TGCTGATTGGTATGCATAGAGTATGTATGGAAACCTTGTGCGGAGTCACCTAGTGCAG”, the binding signal is reported as 56600 fluorescence intensity (a.u.). With “AACAAGATTGTGATTCATACATCTGCATCTTATTTTGTATCGGAGTCACCTAGTGCAG” the binding signal was 3650 fluorescence intensity (a.u.). “GCCTTTGCGTGATTGGCGACGCCTCTCCTCCCTCCTTCCACGGAGTCACCTAGTGCAG” was tested, and the binding signal was 28200 fluorescence intensity (a.u.). With “TATCTAAATGACATGACTCACTTAGATCCTAATAGGACATCGGAGTCACCTAGTGCAG” the binding signal was 7670 fluorescence intensity (a.u.). For “TTATTTTAGATTGGGTAAAATTGTGTTTGTTCACTTTGAACGGAGTCACCTAGTGCAG”, the binding signal was 12100 fluorescence intensity (a.u.). In the case of “GTTAATAGATTTCGATAGGCAACTAAAACATTTGGATAGCCGGAGTCACCTAGTGCAG”, the binding signal is reported as 29400 fluorescence intensity (a.u.). With “ATACATGCAAACACGATTGATTATTCAACAAATTGAGCCTCGGAGTCACCTAGTGCAG” the binding signal was 12300 fluorescence intensity (a.u.). In the case of “GAATTGTAGTAATTAAATTAATTAAACCTACTAAACCCATCGGAGTCACCTAGTGCAG”, the binding signal is reported as 27700 fluorescence intensity (a.u.). With “AGCCTAATCATGTTCTTCTGGGTTAATTCATCGTATTGTTCGGAGTCACCTAGTGCAG” the binding signal was 8710 fluorescence intensity (a.u.). “AAATGATGAAGGATTGTAATTGGTTGATTTCGTCTTATTTCGGAGTCACCTAGTGCAG” was tested, and the binding signal was 14300 fluorescence intensity (a.u.). For “TCGACAATCACAGTAAACCAATATAATAAATACTCCCTCCCGGAGTCACCTAGTGCAG”, the binding signal was 6400 fluorescence intensity (a.u.). “ATGAATAAAATTTATTCAATTAACTATGTGTTACATCGAGCGGAGTCACCTAGTGCAG” was tested, and the binding signal was 21500 fluorescence intensity (a.u.). “AATCCAATCAATCGCGATTCGATCATCTGTTCCACCCGCCCGGAGTCACCTAGTGCAG” was tested, and the binding signal was 34400 fluorescence intensity (a.u.). “GACGTGACAATTAATTATTTAACACTCGCTTTCTATAATACGGAGTCACCTAGTGCAG” was tested, and the binding signal was 19000 fluorescence intensity (a.u.). “CAGGTTGATTGCTTTATATTTTCCAGTGGATTAGTGCAATCGGAGTCACCTAGTGCAG” was tested, and the binding signal was 49300 fluorescence intensity (a.u.). “ATTAATAGACAGCACCATAAAGATATGCACGATAAGGTTTCGGAGTCACCTAGTGCAG” was tested, and the binding signal was 27800 fluorescence intensity (a.u.). With “TGTGAATTGATTGAAGTCTCAAGGATTAGTATAGTTCTTGCGGAGTCACCTAGTGCAG” the binding signal was 43000 fluorescence intensity (a.u.). With “CACCAATCACATTAATATGATAATTCATTCACCTACCTCGCGGAGTCACCTAGTGCAG” the binding signal was 39700 fluorescence intensity (a.u.). In the case of “TTTAAATTTATAATAATTAAAACTCAATTAATCATACGTTCGGAGTCACCTAGTGCAG”, the binding signal is reported as 20900 fluorescence intensity (a.u.). “AATGATAATCATGTTTGATTTTAAAATCTCAATGACAATACGGAGTCACCTAGTGCAG” was tested, and the binding signal was 20900 fluorescence intensity (a.u.). “CTGCAAATTTGCCTGGTAATTAATTTGTCGAAAATGGTTACGGAGTCACCTAGTGCAG” was tested, and the binding signal was 38400 fluorescence intensity (a.u.). “ACACCAATTACCACGAAACCACAACCAGAATCACCCAACGCGGAGTCACCTAGTGCAG” was tested, and the binding signal was 6880 fluorescence intensity (a.u.). For “AGCTTAAACAAATCTAAATTCCAATCTGTTCGTAAACGTTCGGAGTCACCTAGTGCAG”, the binding signal was 5280 fluorescence intensity (a.u.). With “CAGGATAGATTTGTTGCATGCAATTGTGTGGCGCGGCAATCGGAGTCACCTAGTGCAG” the binding signal was 17800 fluorescence intensity (a.u.). In the case of “CATATTTTGTCAATCTTATAGTCTAGTTATATAATAGCTCCGGAGTCACCTAGTGCAG”, the binding signal is reported as 8760 fluorescence intensity (a.u.). For “ACCCAGATGATGATCAACTGCAATGCATATAACTAGTAACCGGAGTCACCTAGTGCAG”, the binding signal was 3180 fluorescence intensity (a.u.). With “ATGAGTCAATTTGTGTGACCTGACAAGTCTCCTAATGCACCGGAGTCACCTAGTGCAG” the binding signal was 6270 fluorescence intensity (a.u.). “CAACCACAGATCAATCAAATGAAAGTATGTTCATATGCGCCGGAGTCACCTAGTGCAG” was tested, and the binding signal was 5680 fluorescence intensity (a.u.). In the case of “GATATGCTCGTAATTACTTTAAAAGTAATTTTATTTTAAACGGAGTCACCTAGTGCAG”, the binding signal is reported as 4180 fluorescence intensity (a.u.). With “TTCTAATATATTGATGTTAATGAATCTAGACATACATATCCGGAGTCACCTAGTGCAG” the binding signal was 6130 fluorescence intensity (a.u.). In the case of “GAAATAAATCACATGAATTTTATAGGAATCACTCTTGGGTCGGAGTCACCTAGTGCAG”, the binding signal is reported as 4140 fluorescence intensity (a.u.). For “ATCGAAATGATAGATATAAGTACCGCAAAGATGAAGCTACCGGAGTCACCTAGTGCAG”, the binding signal was 4060 fluorescence intensity (a.u.). In the case of “ATTAATTGATGCTTTGCTTGATTACTTGAGTCAGATCCAGCGGAGTCACCTAGTGCAG”, the binding signal is reported as 63200 fluorescence intensity (a.u.). “TTAACTTGCCAATCAAACATGTAGGCAACTGCTGGACTCACGGAGTCACCTAGTGCAG” was tested, and the binding signal was 23400 fluorescence intensity (a.u.). In the case of “GATTTAATTATAAGGGTCAGGCGTGCACATGCAGCACCCGCGGAGTCACCTAGTGCAG”, the binding signal is reported as 3880 fluorescence intensity (a.u.). For “CAGTGACAGTGACTGTACTCTTGTACTCTTACAACCGCCGCGGAGTCACCTAGTGCAG”, the binding signal was 5660 fluorescence intensity (a.u.). “GTATTAATTTAACATATGCTTTAATTTCCTATGTATTAGACGGAGTCACCTAGTGCAG” was tested, and the binding signal was 16400 fluorescence intensity (a.u.). With “TTGAATTGGTGATATAAATCCGTGCAAGATTCAAGAGCCACGGAGTCACCTAGTGCAG” the binding signal was 3510 fluorescence intensity (a.u.). With “GCATTGATATGAACCATTGATTTGTTATCATGCAGTGCTACGGAGTCACCTAGTGCAG” the binding signal was 26400 fluorescence intensity (a.u.). With “AAATAGACAGTAGATAATATGTGGGAGGATAAATGACACACGGAGTCACCTAGTGCAG” the binding signal was 4800 fluorescence intensity (a.u.). With “ATGTTAAATAGATATATTTAGATTCATAATATTAGAACGTCGGAGTCACCTAGTGCAG” the binding signal was 12300 fluorescence intensity (a.u.). In the case of “TTAAATAATTGTTCGTGCTTCTGGCGTAAAGTATTGAAGTCGGAGTCACCTAGTGCAG”, the binding signal is reported as 12200 fluorescence intensity (a.u.).
